The list shows a part of the results.
Legend:
Test in all cases: glycan array binding signal (z-score within array); higher = stronger binding
Conditions in all cases: glycan notation: IUPAC condensed, linker removed
[1] = target: Glc(b1-4)Glc(b1-4)Glc(b1-4)Glc(b1-4)Glc(b1-4)Glc(b1-4)Glc
In short: (§1)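 Arrays were curated from the Consortium for Functional Glycomics database, 3228 in total, and kept only where the protein sequence was available. Binding is expressed as a within-array Z-score. This score was averaged across arrays of the same protein sequence at different concentrations or buffers and across linkers, and negative values can be read as non-binding.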

[2] = target: Glc(b1-4)Glc(b1-4)Glc(b1-4)Glc(b1-4)Glc(b1-4)Glc(b1-4)Glc(b1-4)Glc
In short: as §1

[3] = target: Glc(b1-4)Glc(b1-4)Glc(b1-4)Glc(b1-4)Glc(b1-4)Glc(b1-4)Glc(b1-4)Glc(b1-4)Glc
In short: as §1

[4] = target: Glc(b1-4)Glc(b1-4)Glc(b1-4)Glc(b1-4)Glc(b1-4)Glc(b1-4)Glc(b1-4)Glc(b1-4)Glc(b1-4)Glc
In short: as §1

[5] = target: Glc(b1-4)Glc(b1-4)Glc(b1-4)Glc(b1-4)Glc(b1-4)Glc(b1-4)Glc(b1-4)Glc(b1-4)Glc(b1-4)Glc(b1-4)Glc
In short: as §1

[6] = target: Glc(b1-4)Glc(b1-4)Glc(b1-4)Glc(b1-4)Glc(b1-4)Glc(b1-4)Glc(b1-4)Glc(b1-4)Glc(b1-4)Glc(b1-4)Glc(b1-4)Glc
In short: as §1

[7] = target: Glc(b1-4)Glc(b1-4)Glc(b1-4)Glc(b1-4)Glc(b1-4)Glc(b1-4)Glc(b1-4)Glc(b1-4)Glc(b1-4)Glc(b1-4)Glc(b1-4)Glc(b1-4)Glc
In short: as §1

Glc(b1-6)Glc = target: Glc(b1-6)Glc
In short: as §1

Glc(b1-6)Glc(b1-6)Glc = target: Glc(b1-6)Glc(b1-6)Glc
In short: as §1

[8] = target: Glc(b1-6)Glc(b1-6)Glc(b1-6)Glc
In short: as §1

[9] = target: Glc(b1-6)Glc(b1-6)Glc(b1-6)Glc(b1-6)Glc
In short: as §1

[10] = target: Glc(b1-6)Glc(b1-6)Glc(b1-6)Glc(b1-6)Glc(b1-6)Glc
In short: as §1

[11] = target: Glc(b1-6)Glc(b1-6)Glc(b1-6)Glc(b1-6)Glc(b1-6)Glc(b1-6)Glc
In short: as §1

[12] = target: Glc(b1-6)Glc(b1-6)Glc(b1-6)Glc(b1-6)Glc(b1-6)Glc(b1-6)Glc(b1-6)Glc
In short: as §1

GlcA(b1-3)Gal = target: GlcA(b1-3)Gal
In short: as §1

[13] = target: GlcA(b1-3)Gal(b1-3)GlcNAc
In short: as §1

GlcA(b1-3)Gal(b1-4)Glc = target: GlcA(b1-3)Gal(b1-4)Glc
In short: as §1

[14] = target: GlcA(b1-3)Gal(b1-4)GlcNAc(b1-3)Gal(b1-4)Glc
In short: as §1

[15] = target: GlcA(b1-3)Gal(b1-4)GlcNAc(b1-3)Gal(b1-4)GlcNAc(b1-3)Gal(b1-4)Glc
In short: as §1

[16] = target: GlcA(b1-3)GlcNAc(b1-4)GlcA(b1-3)GlcNAc
In short: as §1

[17] = target: GlcA(b1-3)GlcNAc(b1-4)GlcA(b1-3)GlcNAc(b1-4)GlcA(b1-3)GlcNAc(b1-4)GlcA(b1-3)GlcNAc(b1-4)GlcA(b1-3)GlcNAc(b1-4)GlcA(b1-3)GlcNAc(b1-4)GlcA(b1-3)GlcNAc
In short: as §1

[18] = target: GlcA(b1-4)GlcNAc(a1-4)GlcA(b1-4)2,5-Anhydro-Man
In short: as §1

[19] = target: GlcA(b1-4)GlcNAc(a1-4)GlcA(b1-4)GlcNAc(a1-4)GlcA(b1-4)GlcNAc(a1-4)GlcA(b1-4)2,5-Anhydro-Man
In short: as §1

GlcA3S(b1-3)Gal = target: GlcA3S(b1-3)Gal
In short: as §1

GlcA3S(b1-3)Gal(b1-4)Glc = target: GlcA3S(b1-3)Gal(b1-4)Glc
In short: as §1

[20] = target: GlcA3S(b1-3)Gal(b1-4)GlcNAc(b1-3)Gal(b1-4)Glc
In short: as §1

[21] = target: GlcA3S(b1-3)Gal(b1-4)GlcNAc(b1-3)Gal(b1-4)GlcNAc(b1-3)Gal(b1-4)Glc
In short: as §1

GlcNAc(a1-4)Gal = target: GlcNAc(a1-4)Gal
In short: as §1

[22] = target: GlcNAc(a1-4)Gal(b1-3)[Fuc(a1-2)]Gal
In short: as §1

GlcNAc(b1-2)Fuc = target: GlcNAc(b1-2)Fuc
In short: as §1

GlcNAc(b1-2)Man = target: GlcNAc(b1-2)Man
In short: as §1

[23] = target: GlcNAc(b1-2)Man(a1-3)[GlcNAc(b1-2)Man(a1-6)]Man
In short: as §1

[24] = target: GlcNAc(b1-2)Man(a1-3)[GlcNAc(b1-2)Man(a1-6)]Man(b1-4)GlcNAc(b1-4)GlcNAc
In short: as §1

[25] = target: GlcNAc(b1-2)Man(a1-3)[GlcNAc(b1-2)Man(a1-6)]Man(b1-4)GlcNAc(b1-4)[Fuc(a1-6)]GlcNAc
In short: as §1

[26] = target: GlcNAc(b1-2)Man(a1-3)[GlcNAc(b1-2)Man(a1-6)][GlcNAc(b1-4)]Man(b1-4)GlcNAc(b1-4)GlcNAc
In short: as §1

[27] = target: GlcNAc(b1-2)Man(a1-3)[Man(a1-3)[Man(a1-6)]Man(a1-6)][GlcNAc(b1-4)]Man(b1-4)GlcNAc(b1-4)GlcNAc
In short: as §1

[28] = target: GlcNAc(b1-2)[GlcNAc(b1-4)]Man(a1-3)[GlcNAc(b1-2)Man(a1-6)][GlcNAc(b1-4)]Man(b1-4)GlcNAc(b1-4)GlcNAc
In short: as §1

[29] = target: GlcNAc(b1-2)[GlcNAc(b1-4)]Man(a1-3)[GlcNAc(b1-2)[GlcNAc(b1-4)][GlcNAc(b1-6)]Man(a1-6)][GlcNAc(b1-4)]Man(b1-4)GlcNAc(b1-4)GlcNAc
In short: as §1

[30] = target: GlcNAc(b1-2)[GlcNAc(b1-4)]Man(a1-3)[GlcNAc(b1-2)[GlcNAc(b1-6)]Man(a1-6)]Man(b1-4)GlcNAc(b1-4)GlcNAc
In short: as §1

GlcNAc(b1-3)Fuc = target: GlcNAc(b1-3)Fuc
In short: as §1

GlcNAc(b1-3)Gal(b1-4)Glc = target: GlcNAc(b1-3)Gal(b1-4)Glc
In short: as §1

[31] = target: GlcNAc(b1-3)[GlcNAc(b1-6)]Gal
In short: as §1

[32] = target: GlcNAc(b1-3)[GlcNAc(b1-6)]Gal(b1-4)GlcNAc(b1-3)[GlcNAc(b1-6)]Gal(b1-4)GlcNAc(b1-3)Gal(b1-4)Glc
In short: as §1

GlcNAc(b1-4)Fuc = target: GlcNAc(b1-4)Fuc
In short: as §1

GlcNAc(b1-4)GlcNAc = target: GlcNAc(b1-4)GlcNAc
In short: as §1

Measured: glycan array binding signal (z-score)

B1: HysACBM (Streptococcus pneumoniae), Q54873 (protein)
chain: KNLVENGDFGQTEDGSSPWTGSKAQGWSAWVDQKNSADASTRVIEAKDGAITISSHEKLRAALHRMVPIEAKKKYKLRFKIKTDNKIGIAKVRIIEESGKDKRLWNSATTSGTKDWQTIEADYSPTLDVDKIKLELFYETGTGTVSFKDIELVEVADQLS
21.5: [17]
0.047: [29]
0.111: [15] | [26]
-0.05: GlcNAc(b1-3)Fuc
0.267: GlcA(b1-3)Gal
-0.024: [27]
0.223: GlcNAc(b1-3)Gal(b1-4)Glc
-0.087: [25]
-0.079: [20]
0.131: GlcNAc(b1-4)GlcNAc
-0.016: [14]
0.264: [30]
-0.091: all other assays above

Reference: the supplement of paper PMC8728848
